Reference: PubChem BioAssay AID743279 (National Center for Advancing Translational Sciences (NCATS), 2014)
Hit rate of the full screen: of about 360,000 compounds, about 17,000 (4.7%) were called active. Inconclusive results, whose numbers are uncertain, are shown with a selection of clear calls. Cut-off read from the data, not from the text of the source: active = activity change below about -50%; inconclusive = mostly about -30% to -49%; inactive = weaker than that.

Experiment: qHTS for Inhibitors of Inflammasome Signaling: IL-1-beta AlphaLISA Primary Screen
Conditions: THP-1 LPS/ATP IL-1B secretion, 16 h; at 57.5 µM, stronger effect = lower value
Method in brief: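 Secreted IL-1B measured by AlphaLISA bead assay after 16 h compound exposure of THP-1 cells; compounds (final up to 57.5 uM) added 1 h before LPS (250 ng/mL) and ATP (1.25 mM) stimulation; lower signal means less secretion.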
% is set by controls: 0 for no effect and ±100 for the full control effect.

| Structure (SMILES) | activity change |
| --- | --- |
| C=Cc1ccc(Cn2c(C)c(C(=O)NCc3ccccc3C(F)(F)F)sc2=O)cc1 | inconclusive: -36.3% |
| O=C(OCc1ccccc1)N1CCN(C(c2ccnc3ccccc23)c2nnnn2-c2ccc3c(c2)OCCO3)CC1 (centres undefined) | inconclusive: -37.4% |
| O=C1CCC(=O)N1c1ccc(S(=O)(=O)Nc2cccc(Br)c2)cc1 | inactive: 5.81% |
| O=S(=O)(c1cccc(F)c1)N1CCN(c2nc(-c3cccnc3)nc3ccccc23)CC1 | active: -57.4% |
| Cc1ccccc1CN1C(=O)/C(=C\c2ccc(C(=O)NCCN3CCOCC3)cc2)Sc2ccccc21 | inconclusive: -47.9% |
| c1ccc(N=Nc2cn[nH]c2-c2ccco2)cc1 | inconclusive: -42.4% |
| COc1cccc(CNC(=O)[C@H](CC(C)C)NC(=O)N2CCn3c2nc2ccccc23)c1 | inconclusive: -49.3% |
| CCC(NC(=O)c1cc(COc2ccc(F)cc2Cl)on1)c1ccncc1 (centres undefined) | inconclusive: -38.7% |
| Nc1nonc1-n1nnc(C(=O)N/N=C/c2cccnc2)c1CSc1ccccc1 | inactive: -3.94% |
| CCCCCCCCN1C(=O)[C@H](CC(=O)NCCCOC)C[C@@]2(C(=O)OCC)CCCC=C12 | inconclusive: -32.4% |
| COc1cc(CCC(=O)N2CCN(c3ncccn3)CC2)cc(OC)c1OC | inactive: 12.3% |
| COc1ccc(Br)cc1S(=O)(=O)N(CC(=O)N1CCOCC1)c1ccccc1 | inactive: 0% |
| CN(C)C(=O)c1cccc(-c2cccc(-c3nc(C(=O)NCc4ccccc4)cc4c3[C@@H](CCO)N(S(=O)C(C)(C)C)C4)c2)c1 (some centres undefined) | active: -55.2% |
| N#Cc1ccc2ccn(CC(=O)NC3CCCCC3)c2c1 | inactive: -2.48% |
| CCN1CCN(CCNC(=O)c2ccc(/C=C3\Sc4ccccc4N(Cc4ccccc4F)C3=O)cc2)CC1 | inactive: 30% |
| CNCCC=C1c2ccccc2CCc2ccccc21 | active: -64.3% |
| COCC(=O)N1CCC(Oc2ccc(C(=O)N3CCCCCCC3)cc2)CC1 | inactive: 15.4% |
| Cc1cc([N+](=O)[O-])cc2ncccc12 | inactive: -7.33% |
| C/C(=N\Nc1nc2ccccc2s1)c1cccs1 | active: -83.3% |
| CCCC(=O)Nc1cccc(C(=O)Nc2nccs2)c1 | inconclusive: -31.1% |
| OC1C=CSc2nc3ccccc3n21 (centres undefined) | inconclusive: -49.5% |

| Structure (SMILES) | activity change |
| --- | --- |
| COc1ccc(CNc2ncnc3c2[nH]c2cc(OC)c(OC)cc23)cc1 | active: -94.5% |
| Cc1ccc(C(C)C)c(OCc2nc(-c3nonc3N)no2)c1 | inconclusive: -32% |
| CCOc1cc(S(=O)(=O)N2CCN=C2Cc2ccccc2)ccc1F | inconclusive: -33.3% |
| COc1ccc(C(C[N+](=O)[O-])c2c(C)cc3ccccn23)cc1 (centres undefined) | inactive: -6.93% |
| O=[N+]([O-])c1cccc(-n2nnnc2CNCc2ccccc2)c1 | inconclusive: -35.6% |
| Cn1c(-c2ccc(F)cc2)cnc1NCc1cccc([N+](=O)[O-])c1 | inconclusive: -37.4% |
| COc1cc(NC(=O)CN2C(=O)C(c3ccccc3)=NC2(C)C)cc(OC)c1 | inactive: 8.78% |
| Cc1ccc(NC(=O)CSc2nc3cc(C(=O)NCC4CCCO4)ccc3c(=O)n2CC2CCCO2)cc1 (centres undefined) | inactive: -5.84% |
| Cc1ccc(N2CC(C(=O)OCC(=O)c3ccc([N+](=O)[O-])cc3)CC2=O)cc1 (centres undefined) | active: -74.4% |
| COC(=O)C1=C(C)N(Cc2ccccc2)C(=NCc2cc(OC)c(OC)c(OC)c2)N[C@H]1CCc1ccccc1 | active: -57.5% |
| CCOC(=O)C1=C(CC)Nc2ccccc2N=C1NC(=O)c1cccc(S(=O)(=O)N2CCOCC2)c1 | inconclusive: -42.2% |
| Cc1cccc(C)c1N1CCN(C(c2ccnc3ccccc23)c2nnnn2-c2ccc3c(c2)OCCO3)CC1 (centres undefined) | inconclusive: -34.2% |
| COc1ccc(-c2nn(-c3ccccc3)cc2C(=O)NC(=S)N2CCOCC2)cc1OC | inactive: -18.8% |
| Cc1nc(SCC(=O)NCCc2ccc(Cl)cc2)nc(C)c1C | inactive: -0.799% |
| CCCN1CCc2c(sc3nc(SC)n(-c4ccccc4)c(=O)c23)C1 | inconclusive: -34.2% |
| Cc1ccc(C2CC(C(F)(F)F)n3ncc(C(=O)NCc4ccco4)c3N2)cc1 (centres undefined) | inactive: -19.1% |
| C=CCNc1oc(-c2ccc(OCC)cc2)nc1C#N | inactive: -3.37% |
| NC(=O)c1ccccc1NC(=O)c1ccc2c(c1)OCO2 | inactive: -9.88% |
| CN(Cc1ccccc1)C(=O)c1cccc(NC(=O)Cc2cccc([N+](=O)[O-])c2)c1 | inconclusive: -46% |
| Cc1nc2ccccc2n1CCc1ccccc1 | inactive: 11.5% |
| COc1cc(OC)c(C(=O)Nc2ccc(C(=O)c3ccccc3)cc2)cc1OC | inconclusive: -42% |

| Structure (SMILES) | activity change |
| --- | --- |
| COc1cccc(NC(=O)NCCCCc2ccccc2)c1 | inconclusive: -37.8% |
| Nc1ccc(C(=O)Nc2ccc(OC(F)(F)C(F)F)c(NC(=O)c3ccc(N)cc3)c2)cc1 | inconclusive: -31.4% |
| C=CCN(CC=C)C(=O)c1ccc2nc(Cc3ccc(OC)c(OC)c3)oc2c1 | inconclusive: -30.3% |
| FC(F)Oc1ccc(NC(=S)N2CCc3ccccc32)cc1 | active: -61.4% |
| CC(=O)NC(c1ccc(F)c(F)c1)c1nc(-c2cccc(C(F)(F)F)c2)cs1 (centres undefined) | inconclusive: -42.3% |
| O=C(CCCN1C(=O)/C(=C/c2ccccc2OC(F)F)SC1=S)Nc1cccnc1 | active: -85.1% |
| Cc1ccc(NS(=O)(=O)c2ccc(Cl)c(NC(=S)NC(=O)C3CCCCC3)c2)cc1Cl | active: -76.9% |
| COc1ccc(CCNC(=O)c2cn(C)c3ccc(S(=O)(=O)N4CCOCC4)cc3c2=O)cc1OC | inconclusive: -38.4% |
| C=CCOc1ccc(C(=O)NC2CCCCC2)cc1 | inconclusive: -33.8% |
| COc1cccc(N2CCN(C(=O)c3cc(-c4ccc(F)cc4)[nH]c3C)CC2)c1 | inconclusive: -39.3% |
| Cc1cc(NC(=O)CSc2nc3ccccc3c(=O)n2CCCC(=O)NCc2ccco2)n[nH]1 | inconclusive: -36.3% |
| CC(C)(C)NC(=O)COc1ccc(S(=O)(=O)N2CCCC2)cc1 | inactive: -12.6% |
| O=S(=O)(c1ccc(OCC(O)CNC23CC4CC(CC(C4)C2)C3)c(Cl)c1)N1CCOCC1 (centres undefined) | active: -77.6% |
| CC(O)CN(CC(C)O)c1ccc2c(c1)Cc1cc([N+](=O)[O-])ccc1-2 (centres undefined) | inconclusive: -30.4% |
| COc1ccc(F)cc1-c1cc(NC(C)=O)c2ncc(-c3cccc(C(F)(F)F)c3)n2c1 | inconclusive: -31.8% |
| CC1(C(=O)NS(=O)(=O)c2cccc(Cl)c2)CCN1C(=O)Cc1ccc(-c2ccccc2)cc1 (centres undefined) | inactive: 22.7% |
| NC(=O)c1cc[n+](CC2=C(C(=O)O)N3C(=O)[C@@H](NC(=O)C(c4ccccc4)S(=O)(=O)[O-])[C@H]3SC2)cc1 (some centres undefined) | inactive: 20.1% |
| O=C(Cc1ccccc1)NCC(=O)OCC(=O)c1ccc(Cl)c([N+](=O)[O-])c1 | inconclusive: -48.6% |
| O=C(Nc1cc(C(F)(F)F)ccc1-n1cncn1)c1ccc(-c2ccccc2)cc1 | inconclusive: -49.8% |
| Cc1cc(C)n(-c2cc(N3CCN(C(=O)c4cccc(Br)c4)CC3)ccc2[N+](=O)[O-])n1 | inconclusive: -31.8% |
| CCC(C)(C)n1nnnc1C(c1ccc(C)cc1)N1CCN(Cc2ccc3c(c2)OCO3)CC1 (centres undefined) | active: -53.1% |

| Structure (SMILES) | activity change |
| --- | --- |
| Cn1c(SCc2ccccc2)nc(N)c(N=O)c1=O | inconclusive: -35.3% |
| O=C(NCCc1ccc(Cl)cc1)c1ccc2c(c1)OCO2 | inconclusive: -30.5% |
| COc1ccc(CNc2nc(Cl)c(C#N)s2)cc1 | inconclusive: -39.1% |
| O=C(O)c1ccc(Cl)cc1NC(=O)C1CCN(S(=O)(=O)c2cccs2)CC1 | inactive: 9.66% |
| CCc1ccc(NC(=O)c2cc(-c3ccco3)on2)cc1 | inconclusive: -32.3% |
| Cc1ccc(S(=O)(=O)Nc2ccc3c(c2)OCCO3)cc1C | inactive: -2.56% |
| NC(=O)c1nsc(C(=O)N(c2cccc(F)c2)C(C(=O)NCC2CCCO2)c2ccc3ncccc3c2)c1N (centres undefined) | inconclusive: -36.3% |
| CCOc1ccc(-c2nc(C#N)c(NC3CC3)o2)cc1 | inconclusive: -35.8% |
| Cc1cccc(COCC(Cc2ccccc2)N2CCN(C(=O)c3cc(Cl)cc(Cl)c3)CCC2=O)c1 (centres undefined) | active: -63.5% |
| COCCn1c(SCC(=O)N2CCCc3ccccc32)nc2ccccc2c1=O | inconclusive: -32.8% |
| Cc1ccccc1CS(=O)(=O)c1cnc2ccccc2n1 | active: -119% |
| CC1CCc2c(sc(NC(=O)c3cccs3)c2C(=O)O)C1 (centres undefined) | inconclusive: -30.5% |
| C[C@]12C=CC(=O)C=C1CC[C@@H]1C2=CC[C@]2(C)[C@@H](C(=O)CN3CCN(c4cc(N5CCCC5)nc(N5CCCC5)n4)CC3)CC[C@@H]12 | inconclusive: -39.5% |
| CSc1ccc(CN2CCC(C)(Oc3cccc(Cl)c3)C2)cc1 (centres undefined) | inactive: 7.92% |
| O=C(Nc1cc(Cl)ccc1Cl)c1ccc(-c2ccccc2)cc1 | inactive: 1.88% |
| COc1ccccc1NC(=O)N(Cc1cc2cc(OC)c(OC)cc2[nH]c1=O)CC1CCCO1 (centres undefined) | inconclusive: -40.1% |
| COc1ccc(-c2ccc(C(=O)Nc3cccc(F)c3)c3occc23)c(C)c1 | inconclusive: -33.5% |
| CC(=O)c1cnc(-c2cccc(Cl)c2)s1 | inactive: -23.7% |
| Cc1ccccc1CC(=O)NC1CCN(Cc2ccccc2)CC1 | inactive: 3.54% |
| Cc1oc(-c2ccc(Cl)cc2)nc1CS(=O)CC(=O)NCCCN1CCCC(C)C1 (centres undefined) | inconclusive: -34.2% |
| O=C(NC12CC3CC(CC(C3)C1)C2)c1cccc(OC(F)F)c1 | inconclusive: -41.2% |
